Screen size: about 420,000 compounds; about 50,000 (12%) were called active. This list was built around the results that the source calls inconclusive (neither active nor inactive); the mix of calls is not that of the screen. Calls follow the shape of the dose curve; as a rule, active = well fitted inhibition curve with a large enough effect; inconclusive = small, poorly fitted or top-dose-only effect; inactive = flat fitted curve, though single readings scatter. Potencies of inconclusive entries are left out as doubtful fits.
Assay: qHTS for Inhibitors of human tyrosyl-DNA phosphodiesterase 1 (TDP1): qHTS in cells in presence of CPT; also: nearly all actives have a fitted effect of over 55% in size
Conditions: chicken DT40 Tdp1-/-;hTDP1 cells + 20 nM CPT, ATP luminescence, 48 h; activity change, negative = growth inhibition: at 46.2 µM (top of the series) unless noted
How it was run: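 Cell growth measured by CellTiter-Glo luminescence after a minimum 48 h, 37 C compound exposure with 20 nM CPT in Tdp1-knockout DT40 cells stably expressing hTDP1, seeded 400/well; qHTS titration format.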
% is scaled to controls: 0 for no effect and ±100 for the full control effect; potency is read from the fitted curve at half-maximal effect; tags tell the direction and shape of the fitted curve.

SMILES	Potency	activity change, negative = growth inhibition
Cc1cccn2c(=O)c(C=O)c(N3CCN(c4ccc(F)cc4)CC3)nc12	inconclusive [inhibitor, single point]	–
CCOc1ccccc1NC(=O)c1cn(C2CCCCC2)c(=O)c2c1c1ccccc1n2C	inconclusive [inhibitor, partial curve]	–
Cc1ccc(NC(=O)/C=C/c2cccc(C(F)(F)F)c2)cc1	–	inactive: -1.42%
CCOC(=O)c1csc(NC(C)=O)n1	–	inactive: -13.4%
Cc1ccc([N+](=O)[O-])cc1N/C=C/C(=O)c1ccco1	inconclusive [inhibitor, single point]	–
CN(C)Cc1c(C(=O)N/N=C/c2ccccc2OCc2c(F)cccc2Cl)nnn1-c1nonc1N	active: 4.11 µM	–
COc1cccc(CN(C)C(=O)C2CCN(S(=O)(=O)c3ccc(C)cc3)CC2)c1OC	–	inactive: -19.1%
CCNC(=S)N/N=C/c1ccc(OCC(=O)Nc2ccc(C)cc2)cc1	–	inconclusive: -37.1% [inhibitor]
CCn1cc(C(=O)N2CCCC(CO)(Cc3ccccc3C)C2)cn1 (configuration not stated)	–	inactive: -0.846%
COc1cccc(-c2cc(N3CCN(C(=O)c4ccoc4)CC3)n3nc(-c4cccc(Cl)c4)cc3n2)c1	active: 14.6 µM	–
CC(c1ccc(F)cc1)n1c(-c2cccs2)n[nH]c1=S (configuration not stated)	–	inactive: 2.03%
O=C(Nc1sc2c(c1C(=O)O)CCC2)c1ccccc1F	inconclusive [inhibitor, single point]	–
CCCC(=O)N1CC(=O)Nc2ccc(C)cc2C1c1ccccc1 (configuration not stated)	–	inactive: 5.2%
O=S(=O)(c1cccs1)N1CCC2(CC1)OCCN2S(=O)(=O)c1ccccc1	–	inactive: -3.76%
CCc1ccc(N2CC(C(=O)Nc3ccc(S(=O)(=O)Nc4nccs4)cc3)CC2=O)cc1 (configuration not stated)	–	inactive: -16%
COC(=O)c1cc(NC(=S)Nc2cc(Cl)cc(Cl)c2)cc(C(=O)OC)c1	active: 18.4 µM	–
COc1ccc(C(=O)Oc2ccc(F)cc2C(=O)/C=C/c2ccc(OC)c(OC)c2)cc1	active: 14.6 µM	–
Cc1ccc(-n2ncc(C(=O)N(C)Cc3ccccc3)c2-n2cccc2)cc1	inconclusive [inhibitor, single point]	–
N#CC(C#N)=Cc1cc2ccccc2nc1N1CCCCC1	active: 20.6 µM	–
Cc1nn(C(C)C(=O)NCc2ccccc2Cl)c(=O)c2c1sc1ccccc12 (configuration not stated)	inconclusive [inhibitor, single point]	–
CC(=O)c1ccc(OCC(=O)NC(=O)NC2CCCCC2)cc1	active: 23.1 µM	–
Cc1cc(F)ccc1NC(=O)CN1C(=O)CCc2cc(S(=O)(=O)N3CCOCC3)ccc21	–	inactive: 6.54%
Cc1ccc(NC(=O)CN2C(=S)NC(C)(C)CC2C)cc1Cl (configuration not stated)	inconclusive [inhibitor, single point]	–
O=C(O)c1cccc(Sc2cc(Cl)ccc2C(=O)O)c1	–	inactive: 0.244%
CC(C)n1c(NCc2cc(Cl)ccc2O)nc2ccccc21	inconclusive [inhibitor, single point]	–
Cc1cc(Br)ccc1NC(=O)C(NS(=O)(=O)c1cccs1)c1ccccc1 (configuration not stated)	inconclusive [inhibitor, single point]	–

SMILES	Potency	activity change, negative = growth inhibition
COc1cc(C=O)ccc1OCCOCCOc1ccc(Cl)cc1	inconclusive [inhibitor, single point]	–
CC(C)(C)OC(=O)NCc1ccc(NC(=O)c2nc[nH]c2C(=O)NCCN(CCNC(=O)c2[nH]cnc2C(=O)Nc2ccc(CNC(=O)OC(C)(C)C)cc2)CCNC(=O)c2[nH]cnc2C(=O)Nc2ccc(CNC(=O)OC(C)(C)C)cc2)cc1	inconclusive [inhibitor, single point]	–
CCCC(=O)N(c1ccc2oc(=O)sc2c1)S(=O)(=O)c1ccccc1	inconclusive [inhibitor, single point]	–
Cc1cc(CNC(=O)c2ccc3c(c2)OCO3)c2ccccc2n1	active: 7.31 µM	–
CNC(=O)CN1C(=O)CSc2nc(C)cc(C)c21	–	inactive: -13.7%
CCCCCC(=O)Nc1cc(S(=O)(=O)N2CCOCC2)ccc1N1CCCC1	–	inactive: -16.5%
COc1ccc(C2=NS(=O)(=O)N(C)C(C(=O)Nc3ccc4c(c3)OCO4)=C2)cc1OC	active: 16.4 µM	–
CN(CCO)S(=O)(=O)c1ccc2c(c1)C(=NNC(N)=O)c1cc(S(=O)(=O)N(C)CCO)ccc1-2	–	inactive: 1.83%
O=C(NC(=S)NNC(=O)c1ccccc1O)c1ccccc1	inconclusive [inhibitor, single point]	–
NC(=O)CC(NC(=O)Cc1cccc2ccccc12)c1ccc(NC2CCCCC2)c([N+](=O)[O-])c1 (configuration not stated)	inconclusive [inhibitor, single point]	–
CN1CCN(CCNC(=O)c2ccc3nc(-c4ccc(F)cc4)c(-c4ccc(F)cc4)nc3c2)CC1	inconclusive [inhibitor, single point]	–
O=c1c(O)c(-c2ccc(O)cc2)oc2cc(O)cc(O)c12	inconclusive [inhibitor, partial curve, poor fit]	–
Cc1ccc(Nc2nc(N)nc(CC#N)n2)cc1	–	inactive: 0.474%
Cc1cc(/C=C2\SC(=S)N(C)C2=O)c(C)n1-c1cccc(O)c1	active: 23.1 µM	–
CCOc1cc(-c2nc(-c3ccc(C)nc3OC)no2)cc(OCC)c1OCC	inconclusive [inhibitor, single point]	–
COc1ccccc1NC(=O)c1ccc2nc(N3C(=O)CCC3=O)sc2c1	–	inactive: -8.2%
COCc1cc(/C=N\NC(=O)COc2ccc(Cl)cc2)ccc1OC	–	inactive: 1.79%
COc1cc(NC(=O)CCCN2C(=O)CCn3nc(-c4cn(C)c5ccccc45)cc32)cc(OC)c1	inconclusive [inhibitor, single point]	–
O=C(NC(=S)NNC(=O)c1ccccc1O)c1cccc([N+](=O)[O-])c1	active: 23.1 µM	–
Cc1c(NC(=O)c2ccc(-c3ccc(F)cc3)o2)cccc1-c1nc2ncccc2o1	active: 4.61 µM	–
CCOc1ccc2nc(N3CCC(C(=O)N4CCN(C5CCCCC5)CC4)CC3)sc2c1	active: 8.2 µM	–
Cc1cccc(-c2nnc3n2N=C(c2ccccc2)CS3)c1	–	inactive: -23%
Cc1sc2c(c1C)c(=O)n(-c1ccc(Cl)cc1)c(=O)n2CC(=O)c1ccccc1	–	inactive: -17.6%
O=c1cc(N2CCC3(CC2)OCCO3)[nH]c(=O)n1-c1ccc(Br)cc1	–	inactive: -0.125%
Cc1ccc(-c2n[nH]c3c2C(c2ccccc2)N(c2ccc(C(=O)O)cc2)C3=O)cc1 (configuration not stated)	–	inactive: 9.68%
Fc1ccc(Nc2nc(-c3ccc(F)cc3)c3c(n2)-c2ccccc2OC3)cc1	inconclusive [inhibitor, single point]	–

SMILES	Potency	activity change, negative = growth inhibition
O=C(c1cnc(N2CCCCC2)c2ccccc12)N1CCN(c2ccc(F)cc2)CC1	active: 23.1 µM	–
NCC(=O)Nc1ccc(Cl)cc1C(=O)c1ccc[nH]1	active: 0.164 µM	–
O=C(NCCN1CCOCC1)c1cnn(-c2nccc(-c3cccs3)n2)c1C1CC1	–	inactive: 2.01%
CC(=NNC(=S)N(Cc1ccccn1)Cc1ccccn1)c1cnccn1	active: 0.58 µM	–
O=c1[nH]cnc2c1C1(CCCC1)Cc1ccccc1-2	–	inactive: -6.71%
CCOc1ccccc1CNC(=O)c1cc2oc3ccccc3c2n1CC	active: 25.9 µM	–
CN(C)c1ccc(-c2ccc3ncnc(NC4CC4)c3c2)cc1	active: 8.2 µM	–
Cc1nc2ccc(NC(=O)c3nn(CC(C)C)c(=O)c4ccccc34)cc2s1	inconclusive [inhibitor, single point]	–
CCOC(=O)c1cccc(NC(=O)c2cccnc2)c1	–	inconclusive: -33.6% [inhibitor]
O=C(Cn1cnc2sc3c(c2c1=O)CCCC3)NCC(=O)Nc1c(F)cc(F)cc1Br	inconclusive [inhibitor, single point]	–
O=C(CCc1nc2ccccc2c(=O)[nH]1)N1CCN(S(=O)(=O)c2cc(Cl)ccc2Cl)CC1	inconclusive [inhibitor, single point]	–
COc1cc(CN2CCNC(=O)C2CC(=O)N(C)CCN2CCOCC2)cc(OC)c1 (configuration not stated)	–	inactive: 0.292%
COc1cc(/C=C2/C(=O)N(c3ccc([N+](=O)[O-])cc3)N=C2N2CCOCC2)ccc1O	inconclusive [inhibitor, single point]	–
Cc1ccn2c(-c3csc(NCc4ccccc4)n3)c(C)nc2c1	inconclusive [inhibitor, single point]	–
CCCCN(C(=O)CSc1nnc(-c2ccccc2)o1)c1c(N)n(CCC)c(=O)[nH]c1=O	–	inactive: -2.01%
COc1cccc(CNC(=O)c2ccc3c(c2)sc2nc(-c4ccccc4)cn23)c1OC	active: 9.2 µM	–
Cc1ccc(Nc2nc(-c3ccc(F)cc3)cs2)nc1	inconclusive [inhibitor, partial curve, poor fit]	–
Cc1ccc(-c2csc(NC(=O)CSc3nnc4c(n3)[nH]c3ccccc34)n2)cc1	active: 13 µM	–
CCN(CC)Cc1ccc(OC)c(Cl)c1	–	inactive: -4%
CC1=C(/C=C/C(=O)O)C(C)(C)CCC1	–	inactive: -6.23%
CC1(C(=O)NC2CCCCC2)CCC(=O)N1CC(F)(F)F (configuration not stated)	–	inactive: -0.879%
CC(CCc1ccco1)NC(=O)c1cc2c(-c3ccccc3F)nn(C)c2s1 (configuration not stated)	inconclusive [inhibitor, single point]	–
CCCN(c1ccc(C(=O)OC)cc1)S(=O)(=O)c1ccccc1	–	inactive: -11.2%
CC1C(=O)N(Cc2cn(CCC3OCCCO3)nn2)CCS(=O)(=O)N1Cc1ccc(-c2ccc(Cl)c(Cl)c2)cc1 (configuration not stated)	active: 4.11 µM	–
Cc1ccc(-c2nc3scc(CCNS(=O)(=O)c4c(C)noc4C)n3n2)cc1	inconclusive [inhibitor, single point]	–

Reference: PubChem BioAssay AID686979 (National Center for Advancing Translational Sciences (NCATS), 2013)
